In all, about 220,000 compounds went through this assay and about 5,700 (2.6%) were called active. Inconclusive results, whose numbers are uncertain, are shown with a selection of clear calls. The call rests on the fitted dose curve; in most records, active means well fitted inhibition curve with a large enough effect; inconclusive means small, poorly fitted or top-dose-only effect; inactive means no such curve, though single readings can be large or run the other way. A potency beside an inconclusive call is a rough fit, not a confirmed value.
target: Lysine-specific demethylase 5B (Homo sapiens) (UniProt Q9UGL1); test: Primary screen for KDM5B Histone Demethylases FDH-coupled qHTS; conditions: FDH-coupled NADH fluorescence (FDH is formaldehyde dehydrogenase); activity change, negative = inhibition: at 57.7 µM (top of the series) unless noted; further: nearly all actives have a fitted effect of over 70% in size; on activity change, negative = inhibition: 0% is about no effect
Sequence of UniProt Q9UGL1 (Q9UGL1 whole entry, looked up): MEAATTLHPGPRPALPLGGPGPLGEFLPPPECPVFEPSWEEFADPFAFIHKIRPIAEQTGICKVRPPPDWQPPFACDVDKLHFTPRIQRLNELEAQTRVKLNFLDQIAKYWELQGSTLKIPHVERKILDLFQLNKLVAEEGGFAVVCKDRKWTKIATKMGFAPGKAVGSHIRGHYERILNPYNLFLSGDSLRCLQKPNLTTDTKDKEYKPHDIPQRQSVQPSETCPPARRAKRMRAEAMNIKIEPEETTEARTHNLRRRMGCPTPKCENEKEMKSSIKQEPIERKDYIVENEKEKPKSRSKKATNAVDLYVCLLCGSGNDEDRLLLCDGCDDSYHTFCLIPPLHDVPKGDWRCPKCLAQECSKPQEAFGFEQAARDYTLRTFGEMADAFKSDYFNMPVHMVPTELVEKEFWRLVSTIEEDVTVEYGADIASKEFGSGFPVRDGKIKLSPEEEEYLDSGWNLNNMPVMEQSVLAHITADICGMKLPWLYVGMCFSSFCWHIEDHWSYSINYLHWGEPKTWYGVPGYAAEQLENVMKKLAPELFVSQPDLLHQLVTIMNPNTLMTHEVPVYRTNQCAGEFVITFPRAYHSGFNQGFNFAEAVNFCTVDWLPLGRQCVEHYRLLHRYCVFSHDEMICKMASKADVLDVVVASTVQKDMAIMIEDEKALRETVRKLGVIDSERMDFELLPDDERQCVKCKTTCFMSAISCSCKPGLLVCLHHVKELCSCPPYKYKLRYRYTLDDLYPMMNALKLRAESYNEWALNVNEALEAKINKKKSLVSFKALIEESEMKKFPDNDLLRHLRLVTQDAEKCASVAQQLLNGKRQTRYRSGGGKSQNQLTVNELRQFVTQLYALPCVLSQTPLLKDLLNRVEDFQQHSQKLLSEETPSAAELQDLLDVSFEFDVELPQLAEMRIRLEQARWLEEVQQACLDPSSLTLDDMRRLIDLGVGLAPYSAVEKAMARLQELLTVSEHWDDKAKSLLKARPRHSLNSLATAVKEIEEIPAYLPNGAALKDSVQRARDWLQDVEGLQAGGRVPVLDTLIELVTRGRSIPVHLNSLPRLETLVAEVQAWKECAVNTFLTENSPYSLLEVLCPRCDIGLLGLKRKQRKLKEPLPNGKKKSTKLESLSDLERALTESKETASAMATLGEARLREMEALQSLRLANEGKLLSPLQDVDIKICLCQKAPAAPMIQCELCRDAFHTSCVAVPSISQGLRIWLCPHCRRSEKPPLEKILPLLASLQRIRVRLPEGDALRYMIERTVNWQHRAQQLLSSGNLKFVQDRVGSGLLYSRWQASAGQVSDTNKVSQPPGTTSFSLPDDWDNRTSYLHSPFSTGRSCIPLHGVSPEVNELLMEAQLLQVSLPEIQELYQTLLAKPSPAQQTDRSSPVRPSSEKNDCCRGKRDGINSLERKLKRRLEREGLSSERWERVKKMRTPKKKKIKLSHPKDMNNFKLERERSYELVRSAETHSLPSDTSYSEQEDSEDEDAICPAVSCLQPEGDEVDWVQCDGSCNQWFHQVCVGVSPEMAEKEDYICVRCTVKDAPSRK
Summary of the method: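 Here, H3K4me3 peptide (12.5 µM in substrate mix) is demethylated by KDM5BΔAP, 200 nM final, after 10 min compound exposure. Formaldehyde product is coupled through FDH (0.25 U/mL in mix) to NADH fluorescence; 30-min ΔRFU feeds dose-response curves.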
Potency means the concentration at half of the fitted maximal effect; tags describe the fitted curve by direction and shape.

| Compound | Potency | activity change, negative = inhibition |
| --- | --- | --- |
| CC1(COc2ccc3[nH]ccc3c2)COc2ccc(C(=O)Nc3cccnc3)cc2N1 (stereo not drawn) | active: 35.5 µM | – |
| CN(C)C[C@@H]1CN(Cc2cccnc2)C[C@H]1NC(=O)c1cc2ccccc2[nH]1 | active: 28.2 µM | – |
| Cn1cnnc1-c1nn(C)c2c1CN(C(=O)c1cc3ccccc3[nH]1)CC2 | – | inactive: -17.4% |
| CCCc1ccc(NC(=O)CC2(C(=O)O)CCCC2)cc1 | – | inactive: -15% |
| Cc1ccc(/C=C/c2nc3ccccc3n2S(=O)(=O)c2ccc(Br)cc2)cc1 | inconclusive: 2.51 µM [inhibitor, full curve, poor fit] | – |
| O=c1[nH]c(Sc2ccc([N+](=O)[O-])cc2[N+](=O)[O-])nc2ccccc12 | inconclusive: 39.8 µM [inhibitor, single point] | – |
| CCOc1ccc(Cn2c(=O)c3sccc3n(CC(=O)NCc3ccccc3Cl)c2=O)cc1 | inconclusive: 39.8 µM [inhibitor, single point] | – |
| CC(C)Cc1cc(C(=O)N2CCc3[nH]nc(-c4ccccc4)c3C2)nc(=O)[nH]1 | inconclusive: 10 µM [inhibitor, partial curve] | – |
| CCc1ccc(NC(=O)CCc2c(C)n(C)c3cc(-c4ccccc4C)nn3c2=O)cc1 | inconclusive: 39.8 µM [inhibitor, single point] | – |
| COc1ccc2c(C)c(CC(=O)Nc3ccc4c(c3)OCCO4)c(=O)oc2c1 | inconclusive: 39.8 µM [inhibitor, single point] | – |
| Cc1nn(-c2ccc(F)cc2)c(Oc2cccc(F)c2)c1CCC(=O)N(C)C(C)C | inconclusive: 28.2 µM [inhibitor, partial curve, poor fit] | – |
| C=CCN(C)C(=O)[C@@H](C)C1CC[C@@]2(C)Cc3sc(CSc4ccccc4)nc3[C@@H](C)[C@@H]2[C@H]1O (stereo partly drawn) | – | inactive: -28.4% |
| O=[S+]([O-])(c1ccccc1)N1CC2(CCCCN2CC2CC2)Cc2ccccc21 (stereo not drawn) | inconclusive: 44.7 µM [inhibitor, partial curve] | – |
| O=C(O)c1ccccc1C(=O)N[C@H]1CO[C@H]2[C@@H]1OC[C@@H]2n1nnnc1Oc1ccc2c(c1)OCO2 | – | inactive: 23.7% |
| COC(=O)c1sc(NC(=O)C2c3ccccc3Oc3ccccc32)c(C#N)c1C | inconclusive: 17.8 µM [inhibitor, partial curve, poor fit] | – |
| O=C(CNCc1cccc(Cl)c1)N1CCc2ccccc2C1 | inconclusive: 15.8 µM [inhibitor, partial curve, poor fit] | – |
| CCCc1sc(C(=O)N2CCCCC2C)cc1Br (stereo not drawn) | – | inactive: -0.118% |
| O=C(Cc1ccc(F)cc1)Nc1cccc(-c2nc3cccnc3s2)c1 | inconclusive: 5.01 µM [inhibitor, partial curve, poor fit] | – |
| COc1ccc(-c2cc(C(=O)NCCc3ccccc3)c3c(-c4ccccc4)[nH]nc3n2)cc1 | inconclusive: 20 µM [inhibitor, partial curve, poor fit] | – |
| CCOc1cc2c(cn1)NCCN(Cc1ccccc1OC)C2 | inconclusive: 35.5 µM [inhibitor, partial curve, poor fit] | – |
| CCOc1cc(CNCCSc2nnnn2C)cc(Cl)c1OCc1ccc(Cl)cc1 | inconclusive: 17.8 µM [inhibitor, partial curve, poor fit] | – |
| COC(=O)Cc1csc(NC(=O)Cc2c(C)c3ccc(OC)cc3oc2=O)n1 | inconclusive: 25.1 µM [inhibitor, partial curve, poor fit] | – |

| Compound | Potency | activity change, negative = inhibition |
| --- | --- | --- |
| COCc1ccc2c(c1)c(OC(C)(C)C(=O)NCCc1ccccn1)nn2Cc1ccccc1 | inconclusive: 31.6 µM [inhibitor, partial curve, poor fit] | – |
| CCc1ccc(S(=O)(=O)c2nnn3c2nc(N2CCCCC2)c2ccccc23)cc1 | inconclusive: 100 µM [inhibitor, partial curve, poor fit] | – |
| CCSc1nc2sc3c(c2c(=O)n1-c1ccc(C)cc1)CCN(C)C3 | inconclusive: 14.1 µM [inhibitor, partial curve, poor fit] | – |
| COc1ccc(NC(=O)C2CCCN(S(=O)(=O)c3ccc4[nH]c(=O)ccc4c3)C2)cc1OC (stereo not drawn) | inconclusive: 44.7 µM [inhibitor, single point] | – |
| O=C(NCC(F)(F)F)c1cc(C2CC2)nc2onc(C3CCNC3)c12 (stereo not drawn) | active: 89.1 µM | – |
| Cc1ccccc1OCCC(=O)Nc1cccc2cccnc12 | – | inactive: -4.58% |
| CN(Cc1ccc(Cl)cc1)C(=O)c1ccc(Cl)c(S(=O)(=O)NC2CC2)c1 | – | inactive: 9.31% |
| N#Cc1c(N)sc2c1CCCCCCCCCC2 | inconclusive: 39.8 µM [inhibitor, single point] | – |
| CC(C)/C=N/NC(=O)CCCCC(=O)N/N=C/C(C)C | – | inactive: -21% |
| COC(=O)c1c(NC(=O)c2c(OC)cccc2OC)sc2c1C(C(=O)OC)CC2 (stereo not drawn) | inconclusive: 44.7 µM [inhibitor, partial curve, poor fit] | – |
| Cc1noc(C)c1NC(=O)N1CCC(c2n[nH]c(=O)n2-c2ccccc2)CC1 | – | inactive: 7.69% |
| O=C(c1ccc(F)cc1)N1C[C@@H](CO)[C@H](c2nc(C3CC3)no2)C1 | – | inactive: -9.78% |
| Cc1ccc(CN[C@@H]2CO[C@H](CNC(=O)c3ccccc3)[C@H]2O)cc1 | – | inactive: 11.7% [at 86.2 µM] |
| COc1ccccc1/C=C/C(=O)C(C#N)c1ccc(C(F)(F)F)cn1 (stereo not drawn) | inconclusive: 39.8 µM [inhibitor, single point] | – |
| COc1cc(NC(=O)c2cc(S(=O)(=O)N3CCc4ccccc43)cn2C)cc(OC)c1 | – | inactive: -1.73% |
| CCCS(=O)(=O)N[C@@H]1CN(c2ncccn2)C[C@H]1CN(C)C | active: 28.2 µM | – |
| N#Cc1sc(-c2cccc(Cl)c2)cc1N | – | inactive: -29.1% |
| COc1ccc(Cl)cc1NC(=O)CN1C(=O)CSc2ccc(S(=O)(=O)N3CCCC3)cc21 | – | inconclusive: -32.2% [inhibitor] |
| O=C(OCc1ccc([N+](=O)[O-])cc1)C1(c2cccc(F)c2)CCCC1 | – | inactive: 21.6% |
| CC(Cn1cncn1)NCc1cc(=O)c2cc(F)ccc2[nH]1 (stereo not drawn) | – | inactive: 48.1% |
| CC(=O)Nc1ccccc1-c1nc2ccccc2n(C(C)C(=O)Nc2cccc(C)c2C)c1=O (stereo not drawn) | inconclusive: 15.8 µM [inhibitor, partial curve, poor fit] | – |
